Reference: patent publication US20130102595A1 (Curis, Inc., priority 2011, published 2013)

Tests used:
Assay in all cases: Cell proliferation assay (CellTiter-Glo)
Assay type in all cases: cell-based
A549 = conditions: Homo sapiens, NSCLC, 72 hours, 0.5% fetal bovine serum, read-out: antiproliferative activity IC50, A549
Description: (§1) Cell Proliferation Assay:
(§2) Cancer cell lines were plated at 5,000 to 10,000 per well in 96-well flat bottomed plates with various concentration of compounds. The cells were incubated with compounds for 72 hours in the presence of 0.5% of fetal bovine serum. Growth inhibition was accessed by adenosine triphosphate (ATP) content assay using Promega CellTiter-Glo kit. Promega CellTiter-Glo kit is an ATP monitoring system based on firefly luciferase. Briefly, 16 μl of mammalian cell lysis and substrate solution was added to 84 μl of culture medium per well to lyse the cells and stabilize the ATP. The mixture was shaken and incubated for 30 minutes and subsequently the luminescence was measured.

CFPAC-1 = conditions: Homo sapiens, Pancreas, 72 hours, 0.5% fetal bovine serum, read-out: antiproliferative activity IC50, CFPAC-1
Description: as §1, §2

CaPan1 = conditions: Homo sapiens, CAPAN-1; Pancreas; 72 hours, 0.5% fetal bovine serum; read-out: antiproliferative activity IC50, CaPan1
Description: as §1, §2

CaPan2 = conditions: Homo sapiens, Capan-2; Pancreas; 72 hours, 0.5% fetal bovine serum; read-out: antiproliferative activity IC50, CaPan2
Description: as §1, §2

Calu6 = conditions: Homo sapiens, Calu-6; NSCLC; 72 hours, 0.5% fetal bovine serum; read-out: antiproliferative activity IC50, Calu6
Description: as §1, §2

H2122 = conditions: Homo sapiens, NCI-H2122; NSCLC; 72 hours, 0.5% fetal bovine serum; read-out: antiproliferative activity IC50, H2122
Description: as §1, §2

H292 = conditions: Homo sapiens, NCI-H292; NSCLC; 72 hours, 0.5% fetal bovine serum; read-out: antiproliferative activity IC50, H292
Description: as §1, §2

H358 = conditions: Homo sapiens, NCI-H358; NSCLC; 72 hours, 0.5% fetal bovine serum; read-out: antiproliferative activity IC50, H358
Description: as §1, §2

H460 = conditions: Homo sapiens, NCI-H460; NSCLC; 72 hours, 0.5% fetal bovine serum; read-out: antiproliferative activity IC50, H460
Description: as §1, §2

HCT116 = conditions: Homo sapiens, HCT-116; Colon; 72 hours, 0.5% fetal bovine serum; read-out: antiproliferative activity IC50, HCT116
Description: as §1, §2

LN-Cap = conditions: Homo sapiens, LNCaP; Prostate; 72 hours, 0.5% fetal bovine serum; read-out: antiproliferative activity IC50, LN-Cap
Description: as §1, §2

MDA-MB-231 = conditions: Homo sapiens, Breast, 72 hours, 0.5% fetal bovine serum, read-out: antiproliferative activity IC50, MDA-MB-231
Description: as §1, §2

MiaPaca1 = conditions: Pancreas; 72 hours, 0.5% fetal bovine serum; read-out: antiproliferative activity IC50, MiaPaca1
Description: as §1, §2

OPM-2 = conditions: Homo sapiens, Multiple Myeloma, 72 hours, 0.5% fetal bovine serum, read-out: antiproliferative activity IC50, OPM-2
Description: as §1, §2

OVCAR-5 = conditions: Homo sapiens, Ovarian, 72 hours, 0.5% fetal bovine serum, read-out: antiproliferative activity IC50, OVCAR-5
Description: as §1, §2

PANC-1 = conditions: Homo sapiens, Pancreas, 72 hours, 0.5% fetal bovine serum, read-out: antiproliferative activity IC50, PANC-1
Description: as §1, §2

PC-3 = conditions: Homo sapiens, Prostate, 72 hours, 0.5% fetal bovine serum, read-out: antiproliferative activity IC50, PC-3
Description: as §1, §2

SW1990 = conditions: Homo sapiens, Pancreas, 72 hours, 0.5% fetal bovine serum, read-out: antiproliferative activity IC50, SW1990
Description: as §1, §2

SW403 = conditions: Homo sapiens, SW-403; Colon; 72 hours, 0.5% fetal bovine serum; read-out: antiproliferative activity IC50, SW403
Description: as §1, §2

SW620 = conditions: Homo sapiens, SW-620; Colon; 72 hours, 0.5% fetal bovine serum; read-out: antiproliferative activity IC50, SW620
Description: as §1, §2

SWI-116 = conditions: Colon; 72 hours, 0.5% fetal bovine serum; read-out: antiproliferative activity IC50, SWI-116
Description: as §1, §2

T-84 = conditions: Homo sapiens, T84; Colon; 72 hours, 0.5% fetal bovine serum; read-out: antiproliferative activity IC50, T-84
Description: as §1, §2

WiDr = conditions: Homo sapiens, Colon, 72 hours, 0.5% fetal bovine serum, read-out: antiproliferative activity IC50, WiDr
Description: as §1, §2

In the case of `O=C(CCCCCCC(=O)Nc1ccccc1)NO` [SAHA, Suberoylanilide hydroxamic acid, reference compound], the IC50 (A549) is reported as 1 to 10 µM, the IC50 (CFPAC-1) is reported as 1 to 10 µM and the IC50 (CaPan1) is reported as 1 to 10 µM. For the same compound, the IC50 (CaPan2) was 1 to 10 µM, the IC50 (Calu6) was 1 to 10 µM and the IC50 (H2122) was 1 to 10 µM. The IC50 (H292) was 1 to 10 µM, the IC50 (H358) was 1 to 10 µM and the IC50 (H460) was 1 to 10 µM. It also gave an IC50 (HCT116) of 1 to 10 µM, an IC50 (LN-Cap) of 100 to 1000 nM and an IC50 (MDA-MB-231) of 1 to 10 µM. For the same compound, the IC50 (MiaPaca1) was 1 to 10 µM, the IC50 (OPM-2) was 100 to 1000 nM and the IC50 (OVCAR-5) was 1 to 10 µM. The IC50 (PANC-1) was 1 to 10 µM, the IC50 (PC-3) was 1 to 10 µM and the IC50 (SW1990) was 1 to 10 µM. The IC50 (SW403) was 1 to 10 µM, the IC50 (SW620) was 1 to 10 µM and the IC50 (SWI-116) was 1 to 10 µM. It also gave an IC50 (T-84) of 1 to 10 µM and an IC50 (WiDr) of 1 to 10 µM.
